Some of the results follow.

This experiment concerns the target T1, OsWOX13 (Oryza sativa, UniProt Q5QMM3 1-267).
T1 sequence: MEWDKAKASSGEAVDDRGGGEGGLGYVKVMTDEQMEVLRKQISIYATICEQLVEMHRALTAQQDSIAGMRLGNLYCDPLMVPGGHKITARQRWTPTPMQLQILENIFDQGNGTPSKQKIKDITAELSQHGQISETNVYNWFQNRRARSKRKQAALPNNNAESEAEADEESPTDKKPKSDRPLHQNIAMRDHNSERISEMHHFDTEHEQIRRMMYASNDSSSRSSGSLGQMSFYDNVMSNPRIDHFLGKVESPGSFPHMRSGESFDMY
The experiment is described as follows: protein-binding microarray (RPBM); PBS, 2% BSA, 51.3 ng/ul salmon testes DNA, 50 uM zinc acetate, 200 nM TF, 25 C, 1 h; high values mean tight binding. As to conditions: protein: recombinant; tags: N-terminal polyhistidine and DsRed monomer fusion (pET32a); label: CyDye5-dUTP incorporated in the synthesized complementary strand; 3' TTTTT single-stranded linker to array surface; dsDNA, one strand shown. The essentials: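 For the binding signal, per-feature fluorescence intensity was read in arbitrary units on an Axon 4000B scanner. Before scanning, a 2% BSA-blocked custom Agilent array made double-stranded with Cy5-dUTP was washed after 1 h at 25 °C with 200 nM protein and 50 µM zinc acetate. The proteins were Ni–NTA-purified transcription factors with N-terminal polyhistidine and DsRed fusions, expressed in E. coli BL21-CodonPlus.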
“AATAAATTCATTGATCTTTCAGCTCCTTGACAGCACTGCACGGAGTCACCTAGTGCAG”: the binding signal was 3410 fluorescence intensity (a.u.).

“ACTAACTAGCCTGTTTGTGAAAATCACTTATAGTAGGCGGCGGAGTCACCTAGTGCAG”: the binding signal was 3220 fluorescence intensity (a.u.).

Regarding “CTAATTGCATAGTGATCGATCGATCTGTATAGATGGTGGTCGGAGTCACCTAGTGCAG”, the binding signal was 12200 fluorescence intensity (a.u.).

Regarding “TTCAAACTATACATAATTGTACTATCGTAGAACTATTTGTCGGAGTCACCTAGTGCAG”, the binding signal is 8320 fluorescence intensity (a.u.).

Take “ACCAAATGGAACGAAAATGGCATTTTGGTGGACACCTGATCGGAGTCACCTAGTGCAG”: the binding signal is 4200 fluorescence intensity (a.u.).

In the case of “ATAATTAGATGATAAAACATAAATAATATTTAATGTTTAACGGAGTCACCTAGTGCAG”, the binding signal is 27600 fluorescence intensity (a.u.).

Consider “CAAGATCACTCTTCAATTAATTTATGGTGACTGCATAGCGCGGAGTCACCTAGTGCAG”, for which the binding signal is 17700 fluorescence intensity (a.u.).

With “AGTCAAATTATAATCCAGTATGAATAAAGTATATTACTACCGGAGTCACCTAGTGCAG”, the binding signal is 7090 fluorescence intensity (a.u.).

Take “TACATGGGACACGAATTGACAGAAGCCCATATGGAGATAGCGGAGTCACCTAGTGCAG”: the binding signal is 3150 fluorescence intensity (a.u.).

“GCCATTATTAAATTGTTGCTTGACGTAATTTGTTTAAGCACGGAGTCACCTAGTGCAG”: the binding signal is 18500 fluorescence intensity (a.u.).

With “TCCCGAGATAATTGCACAAGAGATCCCGAAGCAACCCGTGCGGAGTCACCTAGTGCAG”, the binding signal was 9500 fluorescence intensity (a.u.).

Consider “ACAGCAGTATCATGGTGTGATTGATGCCTAACAAGAGAATCGGAGTCACCTAGTGCAG”, for which the binding signal was 15700 fluorescence intensity (a.u.).

On to “ATAATTGCCATGCATGCACGTTGTCGTTCGTCGACCTTCCCGGAGTCACCTAGTGCAG”, for which the binding signal is 13000 fluorescence intensity (a.u.).

“CCTATTTCCGTTTAAATTTCTAATGACGACTCCCATGGTCCGGAGTCACCTAGTGCAG”: the binding signal is 3470 fluorescence intensity (a.u.).

On to “TATATTGATTATCGAGTACTCCATTCGTCTTAAAATAAGGCGGAGTCACCTAGTGCAG”, for which the binding signal is 31300 fluorescence intensity (a.u.).

For the sequence “TGATCTAACAAATTATGTCACATACTCACATCGGTCAATACGGAGTCACCTAGTGCAG”, the binding signal was 4140 fluorescence intensity (a.u.).

With “ATATACTTAATTTGAATCTTGGAGCCCATACTCCATGTAGCGGAGTCACCTAGTGCAG”, the binding signal is 18400 fluorescence intensity (a.u.).

“ATGCAAAATGGAGATGATGGGAAGGACGACTTTGAAAATGCGGAGTCACCTAGTGCAG”: the binding signal was 3160 fluorescence intensity (a.u.).

For the sequence “TATGATTTGACCATGTGGTGCTATAGTAAATATTTGCTAACGGAGTCACCTAGTGCAG”, the binding signal is 21500 fluorescence intensity (a.u.).

As to “TTTCTTGTTGATTGCAGGATCAAATCAACTGGCACACTAGCGGAGTCACCTAGTGCAG”, the binding signal was 21900 fluorescence intensity (a.u.).

For the sequence “AATGCTAATGACAGATTAATTAGGCTTAATAAATTTGTCTCGGAGTCACCTAGTGCAG”, the binding signal was 29500 fluorescence intensity (a.u.).

In the case of “ATAAAATTTAATATTAAATATGCATTTGAACAGCTATAAACGGAGTCACCTAGTGCAG”, the binding signal was 6360 fluorescence intensity (a.u.).

“ATGGCATGATTTTCATTTTATACGTATTCGGATGGCATGACGGAGTCACCTAGTGCAG”: the binding signal was 5660 fluorescence intensity (a.u.).

For “AAGATAATTAATTTAATCATAACCGAGTTGCATATCTTGCCGGAGTCACCTAGTGCAG”, the binding signal was 47300 fluorescence intensity (a.u.).

On to “CTTCGCTTCAATCTAATCTTCCTTTCCAATGCCGATATTACGGAGTCACCTAGTGCAG”, for which the binding signal was 3840 fluorescence intensity (a.u.).

Turning to “AGGAATTGATGCATTCATCCTGTGATGCTACAAAGAGGACCGGAGTCACCTAGTGCAG”, the binding signal was 14900 fluorescence intensity (a.u.).

For “AGATCAGTTTGACCAAATGTGATTAGTGTTTAATTTATTTCGGAGTCACCTAGTGCAG”, the binding signal was 5940 fluorescence intensity (a.u.).

On to “TGGAATGATGTTGGGATTGATGGATGGATGTATGTTTTGTCGGAGTCACCTAGTGCAG”, for which the binding signal was 15300 fluorescence intensity (a.u.).

“TGCTAAACTATCATCAATCACCGAACAGAAACAAACGTCACGGAGTCACCTAGTGCAG”: the binding signal is 24700 fluorescence intensity (a.u.).

As to “GGTGACTCAGTTTATACCAGATTAATGATCCATTACCTCTCGGAGTCACCTAGTGCAG”, the binding signal is 4460 fluorescence intensity (a.u.).

Turning to “CTTCCATTTATTTCCAGTTATTCACATATGTCGTGCTAAGCGGAGTCACCTAGTGCAG”, the binding signal is 4700 fluorescence intensity (a.u.).

“ACTTTTACTAACAATCATCTCAACCGTTTGATTTAAGTAGCGGAGTCACCTAGTGCAG”: the binding signal is 9390 fluorescence intensity (a.u.).

For “TAATTATAACTCATTCCAATCAAGCTTTGAATGATTTGTTCGGAGTCACCTAGTGCAG”, the binding signal was 10000 fluorescence intensity (a.u.).

“ATCTTTAATTTTGATATTTAATTTTAATCATTGGAAAGGGCGGAGTCACCTAGTGCAG”: the binding signal is 25000 fluorescence intensity (a.u.).

As for “ATAATTGCAATCAAACATCCAATAGAAAACCAAACCACACCGGAGTCACCTAGTGCAG”, the binding signal was 32600 fluorescence intensity (a.u.).

In the case of “CAATAGCTAATTTATACAATAGTTACCTATAAACATATACCGGAGTCACCTAGTGCAG”, the binding signal is 5050 fluorescence intensity (a.u.).

As for “GCGAACGCGATGATTGGAGAGAGCGAAGCTGACCTTCCCTCGGAGTCACCTAGTGCAG”, the binding signal is 13000 fluorescence intensity (a.u.).

Regarding “TATTGAGCCTAATTAATCCATGATTAGCCTATGTGATGCTCGGAGTCACCTAGTGCAG”, the binding signal was 24000 fluorescence intensity (a.u.).

Regarding “TAGCTAAATTTATTTGCTTGGAAAACTCTAGTTACACTGCCGGAGTCACCTAGTGCAG”, the binding signal is 6120 fluorescence intensity (a.u.).

Regarding “GTGGAGGTAATCAATTAATCAATTCAGGTAATGCGGGAGACGGAGTCACCTAGTGCAG”, the binding signal is 29200 fluorescence intensity (a.u.).

Consider “TTAAATTGACTATAGTTGATTTGTAGCCTACAATTGGCAGCGGAGTCACCTAGTGCAG”, for which the binding signal was 64600 fluorescence intensity (a.u.).

“GCACTGATTGAATTGAACTGTATAGAACAAAATGAAATTTCGGAGTCACCTAGTGCAG”: the binding signal was 19600 fluorescence intensity (a.u.).

Source of the values: publication PMC7819943, “Rice protein-binding microarrays: a tool to detect cis-acting elements near promoter regions in rice”.
